According to the supplement of paper PMC10126150:
Values marked as one replicate rest on one cluster of the flow cell; about a third of the high ones do not repeat.

Each sequence was assayed on ATP (assay: switch fluorescence ratio, 500 uM ATP over buffer (Cy3 cluster intensity, sum of 5 cycles each) (fold (ratio)); higher = stronger signal-on switching upon ATP binding; sequences stand for … in TCGTCGGCAGCGTCAGATGTGTATAAGAGACAGTTTTTTTTTTTTTTTTTTTTTTTTT…TC). Conditions: aptamer strand: ATP DNA aptamer (quencher-CACCTGGGGGAGTATTGCGGAGGAAGG + anchor), 100 nM annealed; ATP concentration: 500 uM; one replicate.
How it was run: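 Between each of five buffer/ATP cycles, the flow-cell was stripped with NaOH and re-annealed. Each cycle imaged Cy3-labelled switching-strand clusters, annealed to 100 nM quencher-labelled ATP aptamer on a modified Illumina MiSeq flow-cell, first in selection buffer and then after 15 min with 500 uM ATP at 22 °C. The fluorescence ratio is summed target-cycle over summed buffer-cycle Cy3 intensity per cluster, averaged per switch-domain sequence, with clusters outside 100-1000 RFU excluded.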
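Note: ATP exposure 15 min at 22 °C before imaging.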

Row | Sequence | switch fluorescence ratio
1 | CGTCCTTTGC | 0.98
2 | CGTCGAAAAC | 1.04
3 | CGTCGATCAT | 1.02
4 | CGTCGATTAC | 2.39
5 | CGTCGCGCAC | 2.49
6 | CGTCGGTCTC | 0.993
7 | CGTCGGTGCC | 0.968
8 | CGTCGTAGC | 1.08
9 | CGTCGTTCTG | 1.14
10 | CGTCTACCAT | 1.02
11 | CGTCTACTTG | 1
12 | CGTCTAGTCA | 0.984
13 | CGTCTATGGA | 1.02
14 | CGTCTATTCA | 0.976
15 | CGTCTCAGCG | 1.01
16 | CGTCTGGAG | 1.01
17 | CGTCTGGTTA | 1.02
18 | CGTCTGTTGG | 0.98
19 | CGTCTTAGTA | 1.03
20 | CGTCTTGGGG | 0.977
21 | CGTCTTGTC | 0.975
22 | CGTGAAAATA | 1.01
23 | CGTGAATCGT | 0.947
24 | CGTGAATTTC | 1
25 | CGTGACACAG | 0.972
26 | CGTGAGAGAT | 0.981

Row | Sequence | switch fluorescence ratio
27 | CGTGAGCAAG | 1.13
28 | CGTGAGGGCT | 0.965
29 | CGTGAGGTAT | 0.974
30 | CGTGATAATA | 0.969
31 | CGTGCAACC | 1.14
32 | CGTGCAAGAG | 3.14
33 | CGTGCAATTG | 1.21
34 | CGTGCCGATG | 1
35 | CGTGCCTCGT | 0.997
36 | CGTGCCTTTT | 1
37 | CGTGCTAAAC | 1.23
38 | CGTGCTCCTG | 1.03
39 | CGTGCTGCCC | 1.01
40 | CGTGCTTGCT | 1.01
41 | CGTGGACGTT | 1.02
42 | CGTGGATGGG | 0.981
43 | CGTGGCTAGC | 0.975
44 | CGTGGGGCTA | 0.988
45 | CGTGGGTGTG | 1.06
46 | CGTGGTAGAA | 1.02
47 | CGTGGTAGGC | 0.999
48 | CGTGGTGCGG | 0.971
49 | CGTGGTGGA | 1.04
50 | CGTGTAAGGT | 0.927
51 | CGTGTAATTA | 1.02
52 | CGTGTACTAA | 1.07

Row | Sequence | switch fluorescence ratio
53 | CGTGTAGGTA | 1.02
54 | CGTGTCTGTG | 0.983
55 | CGTGTGATAC | 4.19
56 | CGTGTGTCTA | 0.986
57 | CGTGTTATGT | 0.996
58 | CGTGTTGCGG | 0.995
59 | CGTTAATATT | 0.988
60 | CGTTAATTGG | 0.992
61 | CGTTACAATC | 1.37
62 | CGTTACGGGC | 1.06
63 | CGTTACTGCT | 1.01
64 | CGTTACTTCA | 1.06
65 | CGTTAGATTC | 1.03
66 | CGTTAGGTTG | 0.988
67 | CGTTAGTATG | 0.957
68 | CGTTATGCTT | 0.979
69 | CGTTATTAAA | 0.982
70 | CGTTATTACT | 1.06
71 | CGTTCAACCA | 1.03
72 | CGTTCGTATC | 1.14
73 | CGTTCGTCTG | 1.03
74 | CGTTCTACAA | 0.952
75 | CGTTCTGTGT | 1.01
76 | CGTTCTTAGG | 0.949
77 | CGTTGAAG | 0.958
78 | CGTTGAAGC | 0.983

Row | Sequence | switch fluorescence ratio
79 | CGTTGAATTT | 0.956
80 | CGTTGACCCT | 0.984
81 | CGTTGACGCC | 1.01
82 | CGTTGAGGA | 0.993
83 | CGTTGGCCTA | 0.989
84 | CGTTGGGGAA | 0.999
85 | CGTTGGTAAC | 1.02
86 | CGTTGGTCTG | 0.998
87 | CGTTGGTGGA | 1.03
88 | CGTTGTAGAA | 0.978
89 | CGTTGTCTGG | 1.01
90 | CGTTGTGCTT | 0.983
91 | CGTTGTGGTG | 0.958
92 | CGTTGTGTCC | 1
93 | CGTTTAGC | 1.09
94 | CGTTTATAGC | 1.01
95 | CGTTTCAGCC | 0.98
96 | CGTTTCCCCC | 1.24
97 | CGTTTCTAGT | 0.979
98 | CGTTTCTGA | 1.01
99 | CGTTTGCTGT | 0.953
100 | CGTTTGGTTC | 1.02
101 | CGTTTGTCCC | 1.02
102 | CGTTTTAATA | 1.03
103 | CGTTTTGGAG | 0.964
104 | CGTTTTGTCT | 1.01

Row | Sequence | switch fluorescence ratio
105 | CGTTTTTCCT | 1.03
106 | CGTTTTTGT | 1.05
107 | CTAAAAGGAT | 1
108 | CTAAAAGTGG | 0.942
109 | CTAAAGGGCT | 0.968
110 | CTAAATACTT | 1.06
111 | CTAAATGTGC | 1.02
112 | CTAAATTGGT | 0.998
113 | CTAACATAAA | 1.02
114 | CTAACTATGG | 0.963
115 | CTAACTCCTT | 1.02
116 | CTAACTGTT | 0.938
117 | CTAACTTGCA | 1.01
118 | CTAACTTTC | 1.09
119 | CTAAGACAGC | 0.996
120 | CTAAGAGCTA | 1.05
121 | CTAAGAGTTT | 1.01
122 | CTAAGCAACA | 1.44
123 | CTAAGCCAAA | 0.966
124 | CTAAGCTCAA | 1
125 | CTAAGGACGA | 1.03
126 | CTAAGGGCTA | 1.04
127 | CTAAGTAAAA | 1.02
128 | CTAAGTCGGC | 1.05
129 | CTAATAAGGG | 0.97
130 | CTAATGTAGG | 1

Row | Sequence | switch fluorescence ratio
131 | CTAATGTG | 0.946
132 | CTAATTCACA | 1.11
133 | CTAATTCGCC | 1.04
134 | CTACACGCCG | 1.18
135 | CTACCCGTA | 1.06
136 | CTACGCGCTT | 1.26
137 | CTACGGGCA | 1.07
138 | CTACGTAC | 1.95
139 | CTACGTTAAG | 1.07
140 | CTACTAAGT | 1.06
141 | CTACTACCA | 1.14
142 | CTACTATTAT | 1.01
143 | CTACTGCGCA | 1.33
144 | CTAGAAAATT | 1.02
145 | CTAGACATGA | 1.01
146 | CTAGAGAAGG | 0.984
147 | CTAGAGCTCA | 0.989
148 | CTAGAGGCGG | 0.976
149 | CTAGAGGGAG | 1.01
150 | CTAGATACCT | 1.24
151 | CTAGATGTCC | 1.03
152 | CTAGCAGAAA | 0.939
153 | CTAGCCCTC | 1.01
154 | CTAGCTCATA | 1.01
155 | CTAGGGGCAT | 1.03
156 | CTAGTAAATT | 1.01

Row | Sequence | switch fluorescence ratio
157 | CTAGTAACTT | 0.98
158 | CTAGTACAGG | 1
159 | CTAGTAGAAA | 1.02
160 | CTAGTCCTTA | 0.981
161 | CTAGTGGCGG | 1.02
162 | CTAGTTCAAG | 0.984
163 | CTAGTTGGAA | 0.987
164 | CTAGTTTGTC | 0.953
165 | CTATAAAGAT | 0.995
166 | CTATAAGTTT | 0.995
167 | CTATACGTAA | 1.48
168 | CTATATAACT | 0.98
169 | CTATCCTGCT | 0.986
170 | CTATCCTTTT | 1.03
171 | CTATCGACGC | 1.58
172 | CTATCTCTGA | 1.01
173 | CTATCTGTCG | 1.03
174 | CTATGAGATG | 1
175 | CTATGAGCAA | 4.7
176 | CTATGAGCTG | 0.989
177 | CTATGCAACG | 1.01
178 | CTATGCGGCA | 1
179 | CTATGCTTGG | 0.981
180 | CTATGTAACC | 1.07
181 | CTATGTGTTA | 0.986
182 | CTATTAAAA | 0.98

Row | Sequence | switch fluorescence ratio
183 | CTATTACGAC | 1.12
184 | CTATTCAGAC | 1.01
185 | CTATTCCAGT | 1.03
186 | CTATTCCGTT | 1.01
187 | CTATTCGTGA | 1
188 | CTATTGAAAG | 1.01
189 | CTATTTCCAG | 1.03
190 | CTATTTGCTC | 1.02
191 | CTCAAAACGT | 1.04
192 | CTCAAGGTCA | 1
193 | CTCAATCTGG | 0.981
194 | CTCACAAAT | 1.02
195 | CTCACCAAA | 1.02
196 | CTCACCAAC | 1.3
197 | CTCACCCTTG | 1.25
198 | CTCACGTCAT | 1.34
199 | CTCACTATCT | 1
200 | CTCACTCTTC | 1.01
201 | CTCAGATACG | 1.11
